# The campaign covered roughly 360,000 compounds. About 16,000 (4.4%) were called active. The inconclusive results got no clear call from the source; some entries with a clear call stand among them for comparison. Calls come from the whole dose curve; as a rule, active = well fitted inhibition curve with a large enough effect; inconclusive = small, poorly fitted or top-dose-only effect; inactive = no such curve, though single readings can be large or run the other way. Potencies beside an inconclusive call are fits to weak or partial responses and may not hold up.
# Target: Bromodomain adjacent to zinc finger domain protein 2B (Homo sapiens) (UniProt Q9UIF8)
# UniProt Q9UIF8, sequence (Q9UIF8 whole entry, looked up, the tested form may be a part): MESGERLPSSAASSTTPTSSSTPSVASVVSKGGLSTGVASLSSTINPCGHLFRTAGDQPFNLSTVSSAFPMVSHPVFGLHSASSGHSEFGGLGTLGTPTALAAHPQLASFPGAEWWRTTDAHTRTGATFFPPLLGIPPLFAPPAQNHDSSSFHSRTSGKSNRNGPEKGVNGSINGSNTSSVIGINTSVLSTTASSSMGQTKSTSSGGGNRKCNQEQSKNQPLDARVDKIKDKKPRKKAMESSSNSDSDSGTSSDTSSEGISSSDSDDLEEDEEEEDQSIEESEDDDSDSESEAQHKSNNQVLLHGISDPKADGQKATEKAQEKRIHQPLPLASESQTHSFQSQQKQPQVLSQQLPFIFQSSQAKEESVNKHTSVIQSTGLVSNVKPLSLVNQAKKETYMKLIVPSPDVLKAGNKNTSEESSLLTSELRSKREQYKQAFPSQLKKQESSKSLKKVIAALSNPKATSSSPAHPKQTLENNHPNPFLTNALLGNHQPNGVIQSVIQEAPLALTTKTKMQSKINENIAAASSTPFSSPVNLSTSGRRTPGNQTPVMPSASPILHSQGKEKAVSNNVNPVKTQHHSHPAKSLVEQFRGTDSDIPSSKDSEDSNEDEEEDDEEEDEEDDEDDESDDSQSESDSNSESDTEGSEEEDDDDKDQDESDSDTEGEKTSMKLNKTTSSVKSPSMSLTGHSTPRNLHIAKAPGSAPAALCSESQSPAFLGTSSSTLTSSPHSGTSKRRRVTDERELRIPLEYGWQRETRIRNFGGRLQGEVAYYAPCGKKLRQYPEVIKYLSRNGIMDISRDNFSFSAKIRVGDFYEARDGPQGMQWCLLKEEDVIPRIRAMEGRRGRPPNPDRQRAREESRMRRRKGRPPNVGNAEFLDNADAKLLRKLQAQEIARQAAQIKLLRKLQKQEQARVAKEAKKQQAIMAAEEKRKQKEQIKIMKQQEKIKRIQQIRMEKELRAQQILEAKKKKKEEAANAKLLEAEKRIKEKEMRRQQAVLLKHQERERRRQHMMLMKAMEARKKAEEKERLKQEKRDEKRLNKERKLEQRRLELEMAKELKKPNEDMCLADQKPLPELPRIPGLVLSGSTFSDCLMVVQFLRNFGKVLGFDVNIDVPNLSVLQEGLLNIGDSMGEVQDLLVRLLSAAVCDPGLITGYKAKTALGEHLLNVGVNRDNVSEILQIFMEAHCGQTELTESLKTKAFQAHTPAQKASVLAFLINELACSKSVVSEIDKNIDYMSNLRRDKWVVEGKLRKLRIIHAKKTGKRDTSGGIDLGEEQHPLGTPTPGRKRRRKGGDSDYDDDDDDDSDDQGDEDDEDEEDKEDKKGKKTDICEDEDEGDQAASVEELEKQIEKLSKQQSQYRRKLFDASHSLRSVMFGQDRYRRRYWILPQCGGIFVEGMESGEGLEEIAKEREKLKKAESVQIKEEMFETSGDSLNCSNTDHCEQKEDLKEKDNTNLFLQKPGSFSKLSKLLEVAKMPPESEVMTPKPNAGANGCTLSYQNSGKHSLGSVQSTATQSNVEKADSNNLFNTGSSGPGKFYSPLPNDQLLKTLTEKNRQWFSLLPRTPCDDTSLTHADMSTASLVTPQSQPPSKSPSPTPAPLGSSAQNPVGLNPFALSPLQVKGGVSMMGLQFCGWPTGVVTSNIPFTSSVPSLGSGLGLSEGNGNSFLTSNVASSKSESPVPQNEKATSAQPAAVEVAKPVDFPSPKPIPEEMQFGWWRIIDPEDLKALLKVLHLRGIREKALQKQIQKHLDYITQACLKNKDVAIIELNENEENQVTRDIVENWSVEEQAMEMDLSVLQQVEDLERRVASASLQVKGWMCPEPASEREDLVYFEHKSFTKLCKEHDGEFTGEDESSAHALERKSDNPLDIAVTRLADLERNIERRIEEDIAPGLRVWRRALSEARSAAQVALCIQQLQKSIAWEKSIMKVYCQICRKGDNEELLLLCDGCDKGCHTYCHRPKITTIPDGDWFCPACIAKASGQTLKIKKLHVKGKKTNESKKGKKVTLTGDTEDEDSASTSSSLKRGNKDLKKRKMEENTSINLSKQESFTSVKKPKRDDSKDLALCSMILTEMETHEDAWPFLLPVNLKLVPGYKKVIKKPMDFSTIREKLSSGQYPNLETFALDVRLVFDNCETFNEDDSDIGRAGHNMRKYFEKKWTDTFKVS
# Assay: qHTS Assay for Inhibitors of BAZ2B; note: nearly all actives have a fitted effect of over 60% in size
# Conditions: AlphaScreen BAZ2B-H3K14Ac peptide displacement; activity change, negative = inhibition: at 114 µM (top of the series)
# Summary of the method: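 AlphaScreen displacement: compounds (up to 110uM) incubated 30 min at room temperature with a preformed 50 nM BAZ2B/50 nM biotinylated H3K14Ac peptide complex in PBS pH 7.4 with Tween-20. Donor and acceptor beads at 10 ug/mL final added, 20 min light-protected before reading.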
# % is set by controls: 0 for no effect and ±100 for the full control effect; potency is the fitted concentration of half-maximal effect; tags give direction and shape of the fitted curve.
SMILES,Potency,"activity change, negative = inhibition"
CC1CCN(c2oc(-c3ccco3)nc2S(=O)(=O)c2ccccc2)CC1,"inconclusive: 39.8 µM [inhibitor, partial curve]",–
CN(C)C(=O)/C(=C/c1ccc(-c2cccc([N+](=O)[O-])c2)o1)NC(=O)c1ccccc1,"inconclusive: 56.2 µM [inhibitor, partial curve]",–
COc1ccc(N2CCN(C(=O)Cc3coc4cc(C)ccc34)CC2)cc1,active: 39.8 µM,–
CC1=NN(c2cccc(Cl)c2)C(=O)C1,"inconclusive: 79.4 µM [inhibitor, single point]",–
Cc1cc(Cl)ccc1NC(=O)COC(=O)c1nc2nccc(C)n2n1,–,inactive: -12.7%
CCn1c(-c2ccccn2)nc2cc(S(=O)(=O)N(C)C)ccc21,–,inactive: 14.4%
COc1ccccc1CNC(=O)CCCc1cn(C)c2ccccc12,"inconclusive: 50.1 µM [inhibitor, partial curve]",–
Cc1cc(Cl)ccc1NC(=O)c1cc(S(=O)(=O)N2CCOCC2)cn1C,–,inactive: 2.64%
COc1cccc(N2CCN(C(=O)c3cc4ccc(OC)cc4[nH]3)CC2)c1,"inconclusive: 39.8 µM [inhibitor, full curve]",–
Nc1ccc(C(=O)OCCCc2nc3cc4ccccc4cc3[nH]2)cc1,–,inactive: -31.1%
CCCCNc1nc2c(c(=O)n(Cc3ccc(Cl)cc3)c(=O)n2C)n1C,"inconclusive: 89.1 µM [inhibitor, single point]",–
CN(C)c1ccc(C(CNS(=O)(=O)c2ccc(F)cc2)c2c[nH]c3ccccc23)cc1 (configuration not stated),active: 17.8 µM,–
CN1C(=O)/C(=C/c2cn(CC(=O)N3CCCCC3)c3ccccc23)c2ccccc21,"inconclusive: 44.7 µM [inhibitor, partial curve]",–
O=C(O)c1ccc(N/N=C/c2cc(Br)cs2)cc1,–,inactive: -33.6%
COc1ccc(S(=O)(=O)N2CCC(C(=O)NCc3ccc(C)cc3)CC2)cc1,–,inactive: -12.5%
CC(Sc1nnc(NC2CC2)s1)C(=O)Nc1ccc(N2CCOCC2)cc1 (configuration not stated),–,inactive: -18.6%
CN1c2ccc([N+](=O)[O-])cc2N(C)C1(C)c1ccccc1 (configuration not stated),active: 8.91 µM,–
Cc1cc(Cl)c2oc(C(=O)N3CCCCC3CCN3CCCC3=O)c(C)c2c1 (configuration not stated),active: 50.1 µM,–
COc1ccc(C(CNC(=O)c2oc3ccc(Cl)cc3c2C)N2CCCCC2)cc1 (configuration not stated),"inconclusive: 25.1 µM [inhibitor, full curve]",–

SMILES,Potency,"activity change, negative = inhibition"
Cc1c(CNCCc2ccccc2)c(C(=O)O)c(C)n1-c1ccccc1,"inconclusive: 28.2 µM [inhibitor, full curve]",–
Cc1ccc(OCc2ccc(C(=O)O)o2)c([N+](=O)[O-])c1,–,inactive: -4.38%
Cn1c(SCc2cccc(Br)c2)nnc1-c1ccccn1,"inconclusive: 79.4 µM [inhibitor, single point]",–
COc1ccc(NC(=O)CN(C)C(=O)CCCc2c[nH]c3ccccc23)cc1,"inconclusive: 56.2 µM [inhibitor, partial curve]",–
COc1ccc(-c2nn(-c3ccccc3)cc2/C=N/Nc2ccc3ccccc3n2)cc1OC,"inconclusive: 39.8 µM [inhibitor, partial curve]",–
S=c1nc(-c2ccccc2)[nH]c2ccccc12,–,inactive: -25%
O=[N+]([O-])c1cccc(Cl)c1NCCNS(=O)(=O)c1ccccc1,"inconclusive: 79.4 µM [inhibitor, single point]",–
Cc1ccc(C(=O)N2NC(c3ccc(F)cc3)C3C(=O)N(c4ccc(C)cc4)C(=O)C32)cc1 (configuration not stated),–,inactive: -3.64%
CN1CCN(CC(=O)n2c3c(c4ccccc42)CCCC3)CC1,"inconclusive: 50.1 µM [inhibitor, partial curve]",–
CCCc1n[nH]c(=O)c2c1nnn2Cc1ccccc1F,–,inactive: 3.65%
S=C(NCc1ccco1)N1CCN(Cc2ccco2)CC1,"inconclusive: 39.8 µM [inhibitor, single point]",–
CCOc1ccccc1N1CC(C(=O)Nc2ccc3c(c2)OCCO3)CC1=O (configuration not stated),"inconclusive: 79.4 µM [inhibitor, single point]",–
O=C(c1ccc2c(c1)N(Cc1ccc(Cl)cc1)C(=O)c1ccccc1S2=O)N1CCOCC1 (configuration not stated),–,inactive: -17%
CCCn1c(SCC(=O)c2ccc(CC)cc2)n[nH]c1=O,–,inactive: 4.03%
C=CCNC(=O)C1CCN(c2ccc(S(=O)(=O)N3CCOCC3)cc2[N+](=O)[O-])CC1,"inconclusive: 79.4 µM [inhibitor, single point]",–
COC(=O)c1ccc(COn2nnc3ccccc32)cc1,–,inactive: 13%
COc1ccc2c(c1)oc(=O)c1cc(OC)ccc12,"inconclusive: 79.4 µM [inhibitor, single point]",–
CCCCOc1cccc(C(=O)N(Cc2sccc2C)C2CCS(=O)(=O)C2)c1 (configuration not stated),–,inactive: -1.73%
